# Reference: the supplement of paper PMC9135407
# Values joined by “and” are separate entries in the source; they are usually repeats but may differ in a detail not shown here. Identical values can stand only once. Counter-ions that a name gives are not always drawn. Among all 5,800 compounds or so, about 620 (11%) showed activity.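 Rule for the calls: active = score above a cut-off or among the top three wells of a plate; in these data no inactive exceeds 0.85.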 The list shows a part of the results, in another mix than the full data.
# Test system: primary human hepatic stellate cells (donor 1)
# Assay: scaled lipid accumulation score (0 = DMSO-like, 1 = nortriptyline-like); higher = stronger HSC inactivation (lipid re-accumulation), active = hit call of the paper
# Conditions: 48 h
# [1] = library stock concentration: 1 mM
# [2] = library stock concentration: 3.33 mM
# [3] = library stock concentration: 10 mM
# [4] = library stock concentration: 80 uM
# [5] = library stock concentration: 400 uM
# [6] = library stock concentration: 2 mM
structure (smiles),measurement,setting,value
COc1ccc2c(c1)c(CC(=O)O)c(C)n2C(=O)c1ccc(Cl)cc1 [Indomethacin],scaled lipid accumulation score,,inactive: 0.046
same,scaled lipid accumulation score,[1],inactive: 0.012
same,scaled lipid accumulation score,[2],inactive: ≤ 0
same,scaled lipid accumulation score,[3],inactive: ≤ 0 and inactive: ≤ -0.055 and inactive: 0.004
same,scaled lipid accumulation score,library stock concentration: 10.4 mM,inactive: ≤ 0
same,scaled lipid accumulation score,library stock concentration: 14 mM,inactive: 0.02
NCc1cccc2ccncc12 [8-Isoquinoline methanamine (hydrochloride)],scaled lipid accumulation score,[1],inactive: 0.003
Nc1nc2ccc(OC(F)(F)F)cc2s1 [Riluzole],scaled lipid accumulation score,[2],inactive: ≤ 0
same,scaled lipid accumulation score,library stock concentration: 9.6 mM,inactive: ≤ 0
same,scaled lipid accumulation score,[3],inactive: ≤ 0
Nc1nc2ccc(OC(F)(F)F)cc2s1 [Riluzole hydrochloride],scaled lipid accumulation score,,inactive: 0.26
same,scaled lipid accumulation score,[3],inactive: 0.017
Oc1cc(O)c2c(c1)O[C@H](c1ccc(O)c(O)c1)[C@H](O)C2 [Epicatechin-(-)],scaled lipid accumulation score,,inactive: ≤ 0
Oc1cc(O)c2c(c1)O[C@H](c1ccc(O)c(O)c1)[C@H](O)C2 [Epicatechin],scaled lipid accumulation score,[3],inactive: 0.066
CCOC(=O)C1(CCCCCCOc2ccc(Cl)cc2)CO1 (stereo not drawn),scaled lipid accumulation score,[3],inactive: ≤ 0
CCCCC[C@H](O)/C=C/[C@H]1C(=O)C[C@H](O)[C@@H]1C/C=C\CCCC(=O)OCC(O)CO (stereo partly drawn) [Prostaglandin D2-1-glyceryl ester],scaled lipid accumulation score,[1],inactive: ≤ 0
CCOC(=O)O[C@]1(C(=O)OCCl)CC[C@H]2[C@@H]3CCC4=CC(=O)C=C[C@]4(C)[C@H]3[C@@H](O)C[C@@]21C [Loteprednol etabonate],scaled lipid accumulation score,[2],inactive: 0.028
same,scaled lipid accumulation score,[3],inactive: ≤ 0
CCOC(=O)O[C@]1(C(=O)OCCl)CC[C@H]2[C@@H]3CCC4=CC(=O)C=C[C@]4(C)[C@H]3[C@@H](O)C[C@@]21C,scaled lipid accumulation score,[3],inactive: ≤ 0
CCCCCCCCCCCCCCP(=O)(O)O [Tetradecyl Phosphonate],scaled lipid accumulation score,[1],inactive: ≤ 0
Fc1ccc(CN(C2=NCCN2)c2c(Cl)cccc2Cl)cc1 [IMID-4F hydrochloride],scaled lipid accumulation score,[3],inactive: 0.763
"COC(=O)CCC[C@H](O)[C@H](O)CO [5(S),6(R)-7-trihydroxymethyl Heptanoate]",scaled lipid accumulation score,[1],inactive: ≤ 0
CCc1cc2c(cc1N1CCC(N3CCOCC3)CC1)C(C)(C)c1[nH]c3cc(C#N)ccc3c1C2=O,scaled lipid accumulation score,[4],inactive: ≤ -0.016
same,scaled lipid accumulation score,[5],inactive: ≤ -0.016
same,scaled lipid accumulation score,[6],inactive: 0.126
CCCCCCCC/C=C\CCCCCCCCOC[C@H](COP(=O)([O-])OCC[N+](C)(C)C)OC(C)=O,scaled lipid accumulation score,[1],inactive: ≤ -0.018
CC[C@H]1C(=O)OC[C@@H]1Cc1cncn1C [Isopilocarpine nitrate],scaled lipid accumulation score,[3],inactive: ≤ 0
CCCCC[C@H](O)/C=C/[C@@H]1[C@H]2C/C(=C\CCCC(=O)O)C[C@H]2C[C@H]1O [5-cis Carbaprostacyclin],scaled lipid accumulation score,[1],inactive: ≤ 0
CCCCC/C=C\C/C=C\C/C=C\C=C\[C@@H](O)CCCC(=O)O,scaled lipid accumulation score,library stock concentration: 100 uM,inactive: ≤ -0.021
O=C(O)C(=O)O.[NH-][C@@H]1CCCC[C@H]1[NH-].[Pt+2] [Oxaliplatin],scaled lipid accumulation score,[2],inactive: ≤ 0
same,scaled lipid accumulation score,library stock concentration: 5 mM,inactive: 0.058
same,scaled lipid accumulation score,[3],inactive: ≤ 0 and inactive: ≤ -0.001
CSc1cc2c(cc1C(F)(F)F)N(C(=O)Nc1cccnc1)CC2,scaled lipid accumulation score,[3],inactive: ≤ -0.006
Cc1nn(-c2ccccc2)c(C)c1C=NN1CCN(Cc2ccccc2)CC1,scaled lipid accumulation score,[2],inactive: ≤ -0.008
same,scaled lipid accumulation score,[3],inactive: 0.11 and inactive: ≤ -0.006
Cc1ccc(NC(=O)c2ccc(CN3CCN(C)CC3)cc2)cc1Nc1nccc(-c2cccnc2)n1 [Imatinib Mesylate (STI571)],scaled lipid accumulation score,[2],inactive: 0.259
Cc1ccc(NC(=O)c2ccc(CN3CCN(C)CC3)cc2)cc1Nc1nccc(-c2cccnc2)n1 [Imatinib],scaled lipid accumulation score,[4],inactive: ≤ 0
same,scaled lipid accumulation score,[5],inactive: ≤ 0
same,scaled lipid accumulation score,[6],inactive: 0.049
Cc1ccc(NC(=O)c2ccc(CN3CCN(C)CC3)cc2)cc1Nc1nccc(-c2cccnc2)n1,scaled lipid accumulation score,[5],inactive: 0.022
same,scaled lipid accumulation score,[6],inactive: ≤ -0.005
same,scaled lipid accumulation score,[3],inactive: 0.628
Cc1ccc(NC(=O)c2ccc(CN3CCN(C)CC3)cc2)cc1Nc1nccc(-c2cccnc2)n1 [Imatinib (STI571)] [listing 1 of 2 here],scaled lipid accumulation score,[2],inactive: 0.133
Cc1cc2nc3c(=O)[nH]c(=O)nc-3n(C)c2cc1C=O,scaled lipid accumulation score,[3],inactive: ≤ -0.001
O=C(NCC1(c2nc(-c3ccccc3)cs2)CCOCC1)c1cccc(-c2noc(C(F)(F)F)n2)c1,scaled lipid accumulation score,[2],inactive: ≤ -0.009
same,scaled lipid accumulation score,[3],inactive: ≤ 0
CCOC(=O)COc1ccc2c(=O)cc(-c3ccccc3)oc2c1,scaled lipid accumulation score,[3],inactive: ≤ 0
Nc1ccc(C(=O)Nc2cccc(-c3nc(N4CCOCC4)c4oc5ncccc5c4n3)c2)cn1,scaled lipid accumulation score,[3],active: 0.995
CCCCCCCC/C=C\CCCCCCCC(=O)OC[C@H](CO)OC(C)=O [1-Oleoyl-2-acetyl-sn-glycerol],scaled lipid accumulation score,[1],inactive: 0.033
CCCCCCCC/C=C\CCCCCCCC(=O)OC[C@H](CO)OC(C)=O [1-Oleoyl 2-acetyl-glycerol],scaled lipid accumulation score,[1],inactive: ≤ -0.021
CNCc1ccc(-c2cc(-c3nc(-c4ccc(S(=O)(=O)C(C)C)cc4)cnc3N)on2)cc1,scaled lipid accumulation score,[2],active: 1.12
O=C1/C(=C/c2cccs2)CCC/C1=C\c1cccs1,scaled lipid accumulation score,[3],inactive: ≤ 0
N[C@@H](CSC(c1ccccc1)(c1ccccc1)c1ccccc1)C(=O)O [S-Trityl-L-cysteine],scaled lipid accumulation score,[3],inactive: 0.041
O=C(c1ccc(Nc2nccc(-c3cc4ccccc4s3)n2)cc1)N1CCC(N2CCCC2)CC1 [IKK Inhibitor VII],scaled lipid accumulation score,[2],active: 1.06
Cc1c(C(=O)NN2CCCCC2)nn(-c2ccc(Cl)cc2Cl)c1-c1ccc(Cl)cc1 [Rimonabant],scaled lipid accumulation score,[2],inactive: ≤ 0
same,scaled lipid accumulation score,[3],inactive: ≤ 0
COc1cc2c(cc1OC)CC(=O)N(CCCN(C)C[C@H]1Cc3cc(OC)c(OC)cc31)CC2 [Ivabradine HCl],scaled lipid accumulation score,[2],inactive: ≤ 0
same,scaled lipid accumulation score,[3],inactive: ≤ 0
C[C@H]1c2cccc(O)c2C(=O)C2=C(O)[C@]3(O)C(=O)C(C(N)=O)=C(O)[C@@H](N(C)C)[C@@H]3[C@@H](O)[C@@H]21 [Doxycycline hyclate],scaled lipid accumulation score,,inactive: ≤ 0
C[C@H]1c2cccc(O)c2C(=O)C2=C(O)[C@]3(O)C(=O)C(C(N)=O)=C(O)[C@@H](N(C)C)[C@@H]3[C@@H](O)[C@@H]21 [Doxycycline HCl],scaled lipid accumulation score,[2],inactive: ≤ 0
same,scaled lipid accumulation score,library stock concentration: 4.5 mM,inactive: ≤ 0
same,scaled lipid accumulation score,[3],inactive: ≤ -0.001
C[C@H]1c2cccc(O)c2C(=O)C2=C(O)[C@]3(O)C(=O)C(C(N)=O)=C(O)[C@@H](N(C)C)[C@@H]3[C@@H](O)[C@@H]21,scaled lipid accumulation score,[3],inactive: ≤ 0
C[C@H]1c2cccc(O)c2C(=O)C2=C(O)[C@]3(O)C(=O)C(C(N)=O)=C(O)[C@@H](N(C)C)[C@@H]3[C@@H](O)[C@@H]21 [Doxycycline hydrochloride],scaled lipid accumulation score,[3],inactive: ≤ 0
COc1cc(C(=O)N2CCC(N3CCN(C)CC3)CC2)ccc1Nc1ncc2c(n1)N(C)c1ccccc1C(=O)N2C [listing 1 of 2 here],scaled lipid accumulation score,[3],active: 0.929
COc1cc(C(=O)N2CCC(N3CCN(C)CC3)CC2)ccc1Nc1ncc2c(n1)N(C)c1ccccc1C(=O)N2C [listing 2 of 2 here],scaled lipid accumulation score,[4],inactive: ≤ 0
same,scaled lipid accumulation score,[5],inactive: 0.015
same,scaled lipid accumulation score,[6],inactive: 0.329
Clc1ccc(C(Cn2ccnc2)OCc2ccsc2Cl)c(Cl)c1 (stereo not drawn) [Tioconazole],scaled lipid accumulation score,[2],inactive: ≤ 0
same,scaled lipid accumulation score,library stock concentration: 5.2 mM,inactive: ≤ 0
same,scaled lipid accumulation score,[3],inactive: ≤ 0
O=c1[nH]nc(Sc2ncc([N+](=O)[O-])s2)n1-c1ccc2c(c1)OCCO2,scaled lipid accumulation score,[3],active: 1.25
O=C(O)CNC(=O)C(CS)Cc1ccccc1 (racemic) [DL-Thiorphan],scaled lipid accumulation score,[3],inactive: ≤ 0
CCCC1C(=O)N2C(N(C)C)=Nc3ccc(C)cc3N2C1=O (stereo not drawn) [Azapropazone],scaled lipid accumulation score,,inactive: ≤ 0
COC(=O)/C=C/c1cccc(N(Cc2ccc(-c3ccc(N(C)C)cc3)cc2)C(=O)C2CCCCC2)c1 [Fexaramine],scaled lipid accumulation score,[3],inactive: 0.006
Cc1ccc(NC(=O)c2ccc(CN3CCN(C)CC3)cc2)cc1Nc1nccc(-c2cccnc2)n1 [Imatinib (STI571)] [listing 2 of 2 here],scaled lipid accumulation score,[3],active: 0.92
"C[C@](N)(Cc1ccc(O)c(O)c1)C(=O)O [Methyldopa (L,-)]",scaled lipid accumulation score,,inactive: ≤ 0
C[C@](N)(Cc1ccc(O)c(O)c1)C(=O)O [Methyldopa],scaled lipid accumulation score,library stock concentration: 9.5 mM,inactive: ≤ 0 and inactive: ≤ -0.001
same,scaled lipid accumulation score,[3],inactive: ≤ 0 and inactive: 0.076
C[C@](N)(Cc1ccc(O)c(O)c1)C(=O)O [L-alpha-Methyl DOPA],scaled lipid accumulation score,[3],inactive: ≤ -0.055
c1cnc(N2CCN(Cc3ccc4c(c3)OCO4)CC2)nc1 [Piribedil maleate],scaled lipid accumulation score,[3],inactive: ≤ 0
c1cnc(N2CCN(Cc3ccc4c(c3)OCO4)CC2)nc1 [Piribedil hydrochloride],scaled lipid accumulation score,,inactive: 0.013
c1cnc(N2CCN(Cc3ccc4c(c3)OCO4)CC2)nc1 [Piribedil],scaled lipid accumulation score,library stock concentration: 9.7 mM,inactive: ≤ 0
same,scaled lipid accumulation score,[3],inactive: ≤ -0.006
c1cnc(N2CCN(Cc3ccc4c(c3)OCO4)CC2)nc1 [Piribedil HCl],scaled lipid accumulation score,library stock concentration: 6.7 mM,inactive: ≤ -0.006
COc1cc2c(c(OC)c1OC)-c1c(cc3c(c1OC)OCO3)CC(C)C(C)C2 (stereo not drawn) [Schisandrin B (Sch B)],scaled lipid accumulation score,[2],inactive: ≤ 0
same,scaled lipid accumulation score,[3],inactive: ≤ -0.001
Cl.Fc1ccc([C@@H]2CCNC[C@H]2COc2ccc3c(c2)OCO3)cc1 [Paroxetine HCl],scaled lipid accumulation score,[2],active: 0.491
CCOC(=O)c1cnc2ccc(-c3cncc(NS(=O)(=O)c4ccccc4)c3)cn12,scaled lipid accumulation score,[2],inactive: 0.492
CC(C)(OCc1nn(Cc2ccccc2)c2ccccc12)C(=O)O [Bindarit],scaled lipid accumulation score,[2],inactive: ≤ 0
same,scaled lipid accumulation score,[3],inactive: ≤ 0
Cc1ccc(S(=O)(=O)N[C@@H](Cc2ccccc2)C(=O)CCl)cc1 [Tosyl-Phe-CMK (TPCK)],scaled lipid accumulation score,library stock concentration: 14.2 mM,inactive: 0.746
Cc1ccc(S(=O)(=O)N[C@@H](Cc2ccccc2)C(=O)CCl)cc1 [N-p-Tosyl-L-phenylalanine chloromethyl ketone],scaled lipid accumulation score,[3],inactive: 0.794
